# Measurements as given in the supplement of paper PMC8728848.
# Some of the results follow.
# B1: Gal 2 (Homo sapiens), P05162 (protein)
# chain: MTGELEVKNMDMKPGSTLKITGSIADGTDGFVINLGQGTDKLNLHFNPRFSESTIVCNSLDGSNWGQEQREDHLCFSPGSEVKFTVTFESDKFKVKLPDGHELTFPNRLGHSHLSYLSVRGGFNMSSFKLKE
# Tests used:
# Assay in all cases: glycan array binding signal (z-score within array); higher = stronger binding
# Conditions in all cases: glycan notation: IUPAC condensed, linker removed
# [1] = target: Gal(a1-3)Gal(b1-4)[Fuc(a1-3)]GlcNAc
# Summary of the method: (§1)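 Glycan array binding is given as a within-array Z-score, which can be read as non-binding when negative. The arrays, 3228 of them, came from the Consortium for Functional Glycomics database and were retained only where the protein sequence was available. Z-scores were averaged across arrays of the same protein sequence at different concentrations or buffers and across linkers.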
# [2] = target: Gal(a1-3)Gal(b1-4)[Fuc(a1-3)]GlcNAc(b1-2)Man(a1-3)[Gal(a1-3)Gal(b1-4)[Fuc(a1-3)]GlcNAc(b1-2)Man(a1-6)]Man(b1-4)GlcNAc(b1-4)GlcNAc
# Summary of the method: as §1
# [3] = target: Gal(a1-3)GalNAc
# Summary of the method: as §1
# [4] = target: Gal(a1-3)GlcNAc
# Summary of the method: as §1
# [5] = target: Gal(a1-3)[Gal(a1-4)]Gal(b1-4)GlcNAc
# Summary of the method: as §1
# [6] = target: Gal(a1-4)Gal(b1-3)GlcNAc(b1-2)Man(a1-3)[Gal(a1-4)Gal(b1-3)GlcNAc(b1-2)Man(a1-6)]Man(b1-4)GlcNAc(b1-4)GlcNAc
# Summary of the method: as §1
# [7] = target: Gal(a1-4)Gal(b1-4)Gal
# Summary of the method: as §1
# [8] = target: Gal(a1-4)Gal(b1-4)GalNAc
# Summary of the method: as §1
# [9] = target: Gal(a1-4)Gal(b1-4)Glc
# Summary of the method: as §1
# [10] = target: Gal(a1-4)Gal(b1-4)GlcNAc
# Summary of the method: as §1
# [11] = target: Gal(a1-4)Gal(b1-4)GlcNAc(b1-2)Man(a1-3)[Gal(a1-4)Gal(b1-4)GlcNAc(b1-2)Man(a1-6)]Man(b1-4)GlcNAc(b1-4)GlcNAc
# Summary of the method: as §1
# [12] = target: Gal(a1-4)Gal(b1-4)GlcNAc(b1-3)Gal(b1-4)Glc
# Summary of the method: as §1
# [13] = target: Gal(a1-4)GlcNAc
# Summary of the method: as §1
# [14] = target: Gal(a1-6)Glc
# Summary of the method: as §1
# [15] = target: Gal(b1-2)Gal
# Summary of the method: as §1
# [16] = target: Gal(b1-3)Gal
# Summary of the method: as §1
# [17] = target: Gal(b1-3)Gal(b1-4)GlcNAc
# Summary of the method: as §1
# [18] = target: Gal(b1-3)GalNAc
# Summary of the method: as §1
# [19] = target: Gal(b1-3)GalNAc(a1-3)[Fuc(a1-2)]Gal(b1-4)Glc
# Summary of the method: as §1
# [20] = target: Gal(b1-3)GalNAc(a1-3)[Fuc(a1-2)]Gal(b1-4)GlcNAc
# Summary of the method: as §1
# [21] = target: Gal(b1-3)GalNAc(b1-3)Gal
# Summary of the method: as §1
# [22] = target: Gal(b1-3)GalNAc(b1-3)Gal(a1-4)Gal(b1-4)Glc
# Summary of the method: as §1
# [23] = target: Gal(b1-3)GalNAc(b1-3)Gal(b1-4)Glc
# Summary of the method: as §1
# [24] = target: Gal(b1-3)GalNAc(b1-3)Gal(b1-4)GlcNAc
# Summary of the method: as §1
# [25] = target: Gal(b1-3)GalNAc(b1-4)Gal(b1-4)Glc
# Summary of the method: as §1
# [26] = target: Gal(b1-3)GalNAc(b1-4)[Neu5Ac(a2-3)]Gal(b1-4)Glc
# Summary of the method: as §1
# [27] = target: Gal(b1-3)GlcNAc
# Summary of the method: as §1
# [28] = target: Gal(b1-3)GlcNAc(a1-3)Gal(b1-4)GlcNAc
# Summary of the method: as §1
# [29] = target: Gal(b1-3)GlcNAc(a1-6)Gal(b1-4)GlcNAc
# Summary of the method: as §1
# [30] = target: Gal(b1-3)GlcNAc(b1-2)Man
# Summary of the method: as §1
# [31] = target: Gal(b1-3)GlcNAc(b1-2)Man(a1-3)[Gal(b1-3)GlcNAc(b1-2)Man(a1-6)]Man(b1-4)GlcNAc(b1-4)GlcNAc
# Summary of the method: as §1
# [32] = target: Gal(b1-3)GlcNAc(b1-2)Man(a1-3)[Gal(b1-3)GlcNAc(b1-2)Man(a1-6)]Man(b1-4)GlcNAc(b1-4)[Fuc(a1-6)]GlcNAc
# Summary of the method: as §1
# [33] = target: Gal(b1-3)GlcNAc(b1-2)Man(a1-3)[GlcNAc(b1-4)][Gal(b1-3)GlcNAc(b1-2)Man(a1-6)]Man(b1-4)GlcNAc(b1-4)GlcNAc
# Summary of the method: as §1
# [34] = target: Gal(b1-3)GlcNAc(b1-2)[Gal(b1-3)GlcNAc(b1-6)]Man(a1-6)[Gal(b1-3)GlcNAc(b1-2)Man(a1-3)]Man(b1-4)GlcNAc(b1-4)GlcNAc
# Summary of the method: as §1
# [35] = target: Gal(b1-3)GlcNAc(b1-3)Gal(b1-3)GlcNAc
# Summary of the method: as §1
# [36] = target: Gal(b1-3)GlcNAc(b1-3)Gal(b1-4)Glc
# Summary of the method: as §1
# [37] = target: Gal(b1-3)GlcNAc(b1-3)Gal(b1-4)GlcNAc
# Summary of the method: as §1
# [38] = target: Gal(b1-3)GlcNAc(b1-3)Gal(b1-4)GlcNAc(b1-2)Man(a1-3)[Gal(b1-3)GlcNAc(b1-3)Gal(b1-4)GlcNAc(b1-2)Man(a1-6)]Man(b1-4)GlcNAc(b1-4)GlcNAc
# Summary of the method: as §1
# [39] = target: Gal(b1-3)GlcNAc(b1-3)Gal(b1-4)GlcNAc(b1-2)[Gal(b1-3)GlcNAc(b1-3)Gal(b1-4)GlcNAc(b1-6)]Man(a1-6)[Gal(b1-3)GlcNAc(b1-3)Gal(b1-4)GlcNAc(b1-2)Man(a1-3)]Man(b1-4)GlcNAc(b1-4)[Fuc(a1-6)]GlcNAc
# Summary of the method: as §1
# [40] = target: Gal(b1-3)GlcNAc(b1-3)Gal(b1-4)GlcNAc(b1-3)Gal(b1-4)GlcNAc(b1-2)[Gal(b1-3)GlcNAc(b1-3)Gal(b1-4)GlcNAc(b1-3)Gal(b1-4)GlcNAc(b1-6)]Man(a1-6)[Gal(b1-3)GlcNAc(b1-3)Gal(b1-4)GlcNAc(b1-3)Gal(b1-4)GlcNAc(b1-2)Man(a1-3)]Man(b1-4)GlcNAc(b1-4)[Fuc(a1-6)]GlcNAc
# Summary of the method: as §1
# [41] = target: Gal(b1-3)GlcNAc(b1-3)Gal(b1-4)GlcNAc(b1-6)[Gal(b1-3)GlcNAc(b1-3)]Gal(b1-4)Glc
# Summary of the method: as §1
# [42] = target: Gal(b1-3)GlcNAc(b1-3)Gal(b1-4)[Fuc(a1-3)]GlcNAc(b1-6)[Gal(b1-3)GlcNAc(b1-3)]Gal(b1-4)Glc
# Summary of the method: as §1
# [43] = target: Gal(b1-3)GlcNAc(b1-3)GalNAc
# Summary of the method: as §1
# [44] = target: Gal(b1-3)GlcNAc(b1-6)Gal(b1-4)GlcNAc
# Summary of the method: as §1
# [45] = target: Gal(b1-3)GlcNAc(b1-6)GalNAc
# Summary of the method: as §1
binder,measurement,setting,value
B1,glycan array binding signal (z-score),[1],-0.262
same,glycan array binding signal (z-score),[2],0.06
same,glycan array binding signal (z-score),[3],-0.216
same,glycan array binding signal (z-score),[4],-0.449
same,glycan array binding signal (z-score),[5],-0.222
same,glycan array binding signal (z-score),[6],-0.299
same,glycan array binding signal (z-score),[7],-0.524
same,glycan array binding signal (z-score),[8],-0.503
same,glycan array binding signal (z-score),[9],-0.169
same,glycan array binding signal (z-score),[10],-0.24
same,glycan array binding signal (z-score),[11],-0.153
same,glycan array binding signal (z-score),[12],-0.229
same,glycan array binding signal (z-score),[13],-0.301
same,glycan array binding signal (z-score),[14],-0.278
same,glycan array binding signal (z-score),[15],-0.258
same,glycan array binding signal (z-score),[16],-0.268
same,glycan array binding signal (z-score),[17],0.258
same,glycan array binding signal (z-score),[18],0.061
same,glycan array binding signal (z-score),[19],-0.017
same,glycan array binding signal (z-score),[20],9.48
same,glycan array binding signal (z-score),[21],-0.232
same,glycan array binding signal (z-score),[22],-0.29
same,glycan array binding signal (z-score),[23],1.48
same,glycan array binding signal (z-score),[24],1.91
same,glycan array binding signal (z-score),[25],-0.257
same,glycan array binding signal (z-score),[26],-0.263
same,glycan array binding signal (z-score),[27],-0.073
same,glycan array binding signal (z-score),[28],-0.111
same,glycan array binding signal (z-score),[29],-0.303
same,glycan array binding signal (z-score),[30],-0.167
same,glycan array binding signal (z-score),[31],-0.219
same,glycan array binding signal (z-score),[32],0.094
same,glycan array binding signal (z-score),[33],-0.221
same,glycan array binding signal (z-score),[34],-0.315
same,glycan array binding signal (z-score),[35],0.309
same,glycan array binding signal (z-score),[36],0.74
same,glycan array binding signal (z-score),[37],0.837
same,glycan array binding signal (z-score),[38],-0.151
same,glycan array binding signal (z-score),[39],0.217
same,glycan array binding signal (z-score),[40],-0.06
same,glycan array binding signal (z-score),[41],-0.173
same,glycan array binding signal (z-score),[42],-0.248
same,glycan array binding signal (z-score),[43],-0.181
same,glycan array binding signal (z-score),[44],-0.078
same,glycan array binding signal (z-score),[45],-0.181
